The RNAGym collection of RNA variant scans (doi:10.7554/elife.90254)
The source gives no read counts; variants with many changes may rest on few reads.

B1: LINE1-mini (parent)
chain: GGCAGAGCUCAACACAGCGUGGCAAAGUGGCUGUGGCUAGACUGCC

Variants of: B1
Test: self-cleavage, relative activity (ratio to wild type); higher = more cleavage; in vitro, sequencing; the parent is a self-cleaving ribozyme
C3A U9G C13G showed a self-cleavage of 0.17. For G19C G29C C46A, the self-cleavage was 0.31. G40U A41C C46G gave a self-cleavage of 0.11. Work on G21U C23A C37U yielded a self-cleavage of 0.01. For C18G A25C U38C, the self-cleavage was 0.09. Variant G1A G2C A14U A16G C46A has a self-cleavage of 0.06. In the case of A12G A26G U34G C37U, the self-cleavage is reported as 0.02. G5U G33C G36A U38C showed a self-cleavage of 0. Work on C15U A24U U34G yielded a self-cleavage of 0.18. G7U C8G C13U G21U G29U A39G gave a self-cleavage of 0.18. In the case of G2C C31U G36U G40A C42U, the self-cleavage is reported as 0.01. For G2U A24U A26G C31A, the self-cleavage was 0.01. For U9A G17U A24U C42G, the self-cleavage was 0.09. U9A A24C A41U C42G gave a self-cleavage of 0.16. C18U G19A U20C G21A U38G G40A C46A gave a self-cleavage of 0.01. Work on G27A G29C A39G yielded a self-cleavage of 0.02. With G5C G36U U43A the self-cleavage was 0.04. C13G G21C C37U U43C C46U showed a self-cleavage of 0.08. A26C C31A G33A G36C A41U gave a self-cleavage of 0.02. U34A G36A G40C gave a self-cleavage of 0.03. Variant C3U G5A A6G has a self-cleavage of 0.2. C3A G19C G22U A24G A25U C31G C46A showed a self-cleavage of 0.29. In the case of C13U U34C G35C A39C A41C, the self-cleavage is reported as 0.03. In the case of G7U C10A C13A G22U C31G C45G, the self-cleavage is reported as 0.01. A4G C8A A26C A41C gave a self-cleavage of 0.34. C10A A24G A26U A39U gave a self-cleavage of 0.28. Variant G22A G30A G36U has a self-cleavage of 0.04. Variant U9C A25U G27C G40C U43G C46G has a self-cleavage of 0.01. Variant C3G A6C C10A G21A U28A G35U C42A has a self-cleavage of 0.01. Work on A12G U20A U32A yielded a self-cleavage of 0.02. A16U G40A C46U showed a self-cleavage of 0.06. In the case of G1U A11U C13U, the self-cleavage is reported as 0. Variant C15G G17C G21A G22U has a self-cleavage of 0.06. For C10A C15A C18G A24C, the self-cleavage was 0. In the case of A4G G27U U32A, the self-cleavage is reported as 0.56. C23A C37G G44U gave a self-cleavage of 0. Work on G1U C10G G21A C23A G30C A41C yielded a self-cleavage of 0.01. G2U U9A G17U U20G gave a self-cleavage of 0.02. In the case of G7U U9A A25U, the self-cleavage is reported as 0.04. Work on A4G A16G G33A C42U yielded a self-cleavage of 0.01. Variant C18G A24G G33U A39U has a self-cleavage of 0.05. Work on C18A U32G G40U yielded a self-cleavage of 0. Variant U9G A11U G22C A26C G29A C31A has a self-cleavage of 0.01. In the case of C10A C15U G21C A25C, the self-cleavage is reported as 0.08. Work on G5A G22U C31A yielded a self-cleavage of 0.09. C10G A25U U43A gave a self-cleavage of 0. Variant C8A A24U G27A has a self-cleavage of 0.29. C15G A26U U43C showed a self-cleavage of 0.02. For G5U U28G A39C C46A, the self-cleavage was 0.8. With C13U U20C U34G the self-cleavage was 0.02. Work on G2A C8U A12G A16C yielded a self-cleavage of 0.08. G1U U9G G35A G40A showed a self-cleavage of 0.01. Work on C3A G5C A39C yielded a self-cleavage of 0.28. Work on C13G G33C G36A C46A yielded a self-cleavage of 0.02. G2U A12G G17A U20G C23A showed a self-cleavage of 0.01. Work on G17C G27C C45A yielded a self-cleavage of 0.41. With A4C C15G A16C U43A the self-cleavage was 0.01. With C10U G27A C46A the self-cleavage was 1.14. U20C G22C U38C C46G gave a self-cleavage of 0.05. Variant A24U A26G G33A C37U C46A has a self-cleavage of 0.02. With G17U G29U C31U U34G C42A G44A the self-cleavage was 0. A12C G19C A41C C46A showed a self-cleavage of 0.01. A4C C10G G21C C23G G29U G35U showed a self-cleavage of 0.02. Variant A6U C10A A26C has a self-cleavage of 0.05. C13G G17A A25G G35U showed a self-cleavage of 0.01. In the case of C8U C13U A24U G33C G44U, the self-cleavage is reported as 0.25. G2U A11G G44C C45G gave a self-cleavage of 0.01. With C3G C23A C37A A41U the self-cleavage was 0.58. C18G G19A G40C gave a self-cleavage of 0.05. U20C G36C A39C showed a self-cleavage of 0.12. Variant G1A C10G A11C has a self-cleavage of 0.02. Work on C8U G21U G22U G27A G36U yielded a self-cleavage of 0.17. A6U A16U G17C G29U showed a self-cleavage of 0.07. C8U C23U A26C showed a self-cleavage of 0.11. For C3G C13G A14U C15A G19U G29A A39C, the self-cleavage was 0.07. In the case of A12U C15A A16U G19U G44C, the self-cleavage is reported as 0.04. With U20A C23U C31U G33C the self-cleavage was 0.14. Variant A41G G44A C46A has a self-cleavage of 0.04. For A12G C13G C37G, the self-cleavage was 0. G1A A14U U34A G40A gave a self-cleavage of 0.06. For A6C G19U G21U U34G A41U C42A, the self-cleavage was 0.23. Variant U9C U43A C45G has a self-cleavage of 0.01. C10G C13U C15U G19U U32A gave a self-cleavage of 0.02. With G2A G5U C15A G29U U34G C45G the self-cleavage was 0.1. For G17C C37U C42G, the self-cleavage was 0.03. In the case of G27U C31G G40U C45A, the self-cleavage is reported as 0.01. Variant G5C C15U G35A A41C has a self-cleavage of 0.44. C3U G7U U20G A25G U28G G33A gave a self-cleavage of 0.12. A12G A16U G19A A24G G33U A41U C42G gave a self-cleavage of 0.01. In the case of G5A U20A G40U, the self-cleavage is reported as 0.04. G2U G5A G17U A26U gave a self-cleavage of 0.01. In the case of G1A G7C U9C G29A G36U, the self-cleavage is reported as 0.06. Variant U9G C31U C45A has a self-cleavage of 0.08. In the case of G5U U9G C18U, the self-cleavage is reported as 0.04. In the case of G1A A11G A25C A26C G27U, the self-cleavage is reported as 0.03. For G5U C10G U28G G30C C42G, the self-cleavage was 0.01. For A12G G21U G22A G29A C46A, the self-cleavage was 0.05. Work on A4U C8A C37G U38A yielded a self-cleavage of 0.02. C15U G21A G22U A26C showed a self-cleavage of 0.74. Variant G30U A39C G44C has a self-cleavage of 0.06. Work on G7A A11U C37U yielded a self-cleavage of 0.04. G1C C13G C15U G33C G35A showed a self-cleavage of 0. Work on G2U G21U U43C yielded a self-cleavage of 0.02. With G5A A11G C13G G27A U32G U34C G36U the self-cleavage was 0.01. Variant C23A A26C C31A has a self-cleavage of 0.46. With A14U U28C C46A the self-cleavage was 0.05. Variant G5C U32G G33A has a self-cleavage of 0.03. For A11C C23A A24C, the self-cleavage was 0.02. With U9A G30C A41G C45G the self-cleavage was 0.16. For G5C A14G G19C G29U G36C, the self-cleavage was 0.02. Variant C18A G19C G36A has a self-cleavage of 0.37. Variant G1A A16U C18G U20A U28G G29A A41G C42G C46A has a self-cleavage of 0.02. With A4U G33U C37A the self-cleavage was 0.07. C3U G7C G17C C31G G33U C37U showed a self-cleavage of 0.05. In the case of C3G G5U A14U C15U, the self-cleavage is reported as 0.27. With A25G C31G G36U the self-cleavage was 0.02. C13A A14G G40A showed a self-cleavage of 0.09. For A16C A41C C42G, the self-cleavage was 0.08. For A16G C18U U34A C42A G44A, the self-cleavage was 0.01. A4C C10A U28A U32C C46G gave a self-cleavage of 0.04. G5U A11G C13A A24C G29A C45U gave a self-cleavage of 0.02. C8U G33U U34A A41U G44U C46U showed a self-cleavage of 0.14. Work on G1C G2U C3A A12G G40U yielded a self-cleavage of 0.03. G2A U9C C23U U43A gave a self-cleavage of 0.05. Variant G1U U32C C46A has a self-cleavage of 0.07. In the case of G2C G22U U43A C45A, the self-cleavage is reported as 0.06. For C3U C18A G21C, the self-cleavage was 0.47. With C10G C15A A26U G27C C45A C46A the self-cleavage was 0.01. In the case of U9C A25G C37G C42U C45U, the self-cleavage is reported as 0.02. Variant C3A G5A C23U C45A has a self-cleavage of 0.78. A6C C13G G17U G35U gave a self-cleavage of 0.06. For U9A G35U A39C G44U, the self-cleavage was 0.01. With G1U A11G C15A U34C the self-cleavage was 0.04. In the case of C8A C13A G40U C46U, the self-cleavage is reported as 0.57. For A14G A16U G22C A26U C37U, the self-cleavage was 0.13. G1C G7A C15U G40C gave a self-cleavage of 0.06. A4U A11G C46U gave a self-cleavage of 0.05. A14C G22C U43C showed a self-cleavage of 0.05. In the case of C3A C23A U34C, the self-cleavage is reported as 0.2. Work on G17C G27A G40U C46U yielded a self-cleavage of 0. For G29A C42G U43G, the self-cleavage was 0.99. Work on A4G G5C C10A C13U G22U G40C yielded a self-cleavage of 0.03. For G7U A11G G30U, the self-cleavage was 0.02. G27A C31U C37U U43C gave a self-cleavage of 0.07. For C3A C15G C23G G27A, the self-cleavage was 0.01. G35A U38C A41U U43C G44A showed a self-cleavage of 0.19. Work on G1U C18U A26U G36A yielded a self-cleavage of 0. G7A G27C C46U showed a self-cleavage of 0.09. In the case of G5C A16C U32G, the self-cleavage is reported as 0.13. Variant A6C C15U U34G has a self-cleavage of 0.08. For G1A A4U U9C C13A C45U, the self-cleavage was 0.05. C3G A6G C46G showed a self-cleavage of 0.14. Work on A6C A25C G35C G40A yielded a self-cleavage of 0.09. In the case of G2U A14G G33A C45A, the self-cleavage is reported as 0.02. With C8A G29C A39U the self-cleavage was 0.03. Work on C10U A24G G30U G35C C37A A41G yielded a self-cleavage of 0.01. In the case of A12C C15G U20G U34C, the self-cleavage is reported as 0.01. With A11G C23U U34C the self-cleavage was 0.03. G2U G5U C13A G21A A26C U28G showed a self-cleavage of 0.01. Work on C18G G29A C37G yielded a self-cleavage of 0.05. For G22A U34C C42A, the self-cleavage was 0.04. With A6C G29U G44U C45G the self-cleavage was 0.21. With G22C C23U G44U the self-cleavage was 0.92. A11G G17U G19A G27C showed a self-cleavage of 0.01. Work on G22C C37U A41C C45G yielded a self-cleavage of 0. G5U U9C G27U showed a self-cleavage of 0.04. C3A G17C G30U C45A gave a self-cleavage of 0.27.
